Assay results from PubChem BioAssay AID504339 (National Center for Advancing Translational Sciences (NCATS), 2011).
The campaign covered roughly 390,000 compounds. About 17,000 (4.4%) were called active. Inconclusive results, whose numbers are uncertain, are shown with a selection of clear calls. Calls come from the whole dose curve; as a rule, active = well fitted inhibition curve with a large enough effect; inconclusive = small, poorly fitted or top-dose-only effect; inactive = no such curve, though single readings can be large or run the other way. A potency beside an inconclusive call is a rough fit, not a confirmed value.

The compounds below were run against Lysine-specific demethylase 4A (Homo sapiens) (UniProt O75164) (assay: qHTS Assay for Inhibitors of JMJD2A-Tudor Domain). Conditions: AlphaScreen JMJD2A-Tudor / H3K4me3 peptide binding; activity change, negative = inhibition: at 114 µM (top of the series).
From the text: JMJD2A is a jumonji-domain-containing lysine demethylase that uses Fe(II) together with 2-OG to effect oxidative demethylation of histones. Methylation is one of many […] modification that affect epigenetic transcription. […] It is proposed that the functions of JmjD2A binding to the histones, is to maintain marks after they are installed and to spread the modifications by […], establishing a self-propagating cycle for rapid methylation over a large area of chromatin. […] Thus, small molecule targeting of the JMJD2A-tudor domain interaction with its target methylhistone mark is expected to enable sophisticated experiments probing the fine regulatory pathways leading to selective demethylation of a given methyllysine locus based on the methylation state of adjacent histone marks. A quantitative high throughput AlphaScreen has been developed to identify small molecule inhibitors based on a protocol published by NCGC and SGC [4].
Although AlphaScreen has significant advantages with its utility in a variety of epigenetic target assays, the primary screening data provided in this deposition should be used with caution due to the prevalence of screening artifacts. The top compound concentration tested was high (>100uM) in this assay, which increases number of actives and potential artifacts. An AlphaScreen counterscreen is highly recommended to be run against any putative actives to eliminate non-specific artifacts. Alternatively, one can use other AlphaScreen assays in PubChem to filter out promiscuous hits.
[1] Lee, J. et al. Distinct binding modes specify the recognition of methylated histone H3K4 and H4K20 by JMJD2A-tudor. Nat Struct Mol Biol. 15(1); 109-11. 2008. PMID: 18084306
[2] Yasgar, et al. Compound Management for Quantitative High-Throughput Screening. JALA. 2008 Apr;13(2):79-89. PMID: 18496600
[3] Inglese, et al. Quantitative high-throughput screening: a titration-based approach that efficiently identifies biological activities in large chemical libraries. Proc Natl Acad Sci. 1;103(31):11473-8. 2006. PMID: 16864780
[4] Quinn et al. A homogeneous method for investigation of methyl-dependent protein-protein interactions in epigenetics. Nucleic Acids Res., 38(2):e11. 2010. PMID: […]
[5] Baell,Holloway. New substructure filters for removal of pan assay interference compounds (PAINS) from screening libraries and for their exclusion in bioassays. J Med Chem. 53(7):2719-40. 2010. PMID: 20131845
NIH Molecular Libraries Probe Production Network [MLPCN]
NIH Chemical Genomics Center [NCGC]
Structural Genomics Consortium (SGC)
To each well of a 1,536w plate, 2ul of JMJD2A-Tudor (final 100nM) and 1ul biotinylated histone peptide methylated at Lys4 [b-H3(1-18)K4me3] (final 50nM) were added in 1x PBS buffer, pH 7.4, containing 0.01% Tween-20, using a nanoliter dispenser. Formation of a protein-peptide complex proceeded at room temperature for 30 min. A Kalypsys pin-tool transferred 23nl of library compound solution in DMSO to each well. Following a 30 min incubation of the protein-peptide complex with compounds at room temperature, a mixture of 40 µg/mL each streptavidin-coated donor and nickel chelate acceptor AlphaScreen beads (final 10 µg/mL) was added in a 1ul dispense for a final volume of 4ul, followed by a brief centrifugation (1000 rpm, 1 min). Plates were incubated protected from the light for 20 min at room temperature. Microplates were then read on an EnVision multilabel plate reader using the 1,536 plate HTS AlphaScreen aperture (excitation time 80 ms, measurement time 240 ms).
% is set by controls: 0 for no effect and ±100 for the full control effect; potency is the fitted concentration of half-maximal effect; tags give direction and shape of the fitted curve.
Note: nearly all actives have a fitted effect of over 50% in size.

UniProt O75164, sequence (O75164 whole entry, looked up, the tested form may be a part): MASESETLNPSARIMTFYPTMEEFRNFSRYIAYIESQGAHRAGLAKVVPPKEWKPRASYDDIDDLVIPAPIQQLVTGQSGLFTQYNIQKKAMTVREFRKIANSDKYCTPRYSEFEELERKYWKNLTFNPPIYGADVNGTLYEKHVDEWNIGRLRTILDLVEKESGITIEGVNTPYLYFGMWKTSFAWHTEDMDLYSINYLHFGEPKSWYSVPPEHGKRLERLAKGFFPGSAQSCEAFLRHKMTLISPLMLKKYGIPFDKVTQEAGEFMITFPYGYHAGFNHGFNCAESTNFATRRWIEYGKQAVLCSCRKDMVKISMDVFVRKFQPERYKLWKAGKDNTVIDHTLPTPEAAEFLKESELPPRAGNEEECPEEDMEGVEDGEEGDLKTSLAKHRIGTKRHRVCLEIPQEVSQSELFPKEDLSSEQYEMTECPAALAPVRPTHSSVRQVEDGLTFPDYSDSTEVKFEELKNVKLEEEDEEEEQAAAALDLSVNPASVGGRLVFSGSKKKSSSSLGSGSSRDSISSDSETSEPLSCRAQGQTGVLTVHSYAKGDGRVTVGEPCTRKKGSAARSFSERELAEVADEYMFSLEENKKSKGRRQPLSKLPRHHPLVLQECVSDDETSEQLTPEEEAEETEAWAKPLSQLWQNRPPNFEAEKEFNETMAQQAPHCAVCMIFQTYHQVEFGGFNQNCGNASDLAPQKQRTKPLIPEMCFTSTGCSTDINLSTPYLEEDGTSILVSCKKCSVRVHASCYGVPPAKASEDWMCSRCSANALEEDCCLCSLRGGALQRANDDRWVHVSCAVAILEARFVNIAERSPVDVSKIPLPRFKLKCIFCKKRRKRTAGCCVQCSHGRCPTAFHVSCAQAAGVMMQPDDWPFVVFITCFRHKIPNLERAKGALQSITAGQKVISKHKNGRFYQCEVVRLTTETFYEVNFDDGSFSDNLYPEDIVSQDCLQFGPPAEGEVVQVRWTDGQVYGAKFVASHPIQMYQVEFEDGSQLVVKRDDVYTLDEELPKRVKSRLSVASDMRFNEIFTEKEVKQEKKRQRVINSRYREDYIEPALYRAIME

Potency, active:
CN(C)c1ccnc(C(=O)O)c1 0.708 µM
CCOc1ccc(C2C(C(=O)c3ccc(C)o3)=C(O)C(=O)N2Cc2cccnc2)cc1 (stereo not given) 89.1 µM
COc1cccc(/C=N/NC(=O)C(=O)N/N=C/c2cccc(OC)c2O)c1O 100 µM
CC(C)(C)c1cc(-c2n[nH]c(=S)n2-c2ccccc2F)n[nH]1 10 µM
Oc1c(I)cc(Cl)c2cccnc12 79.4 µM
Cc1c2n(c3ccccc13)CCN(C)C2 22.4 µM
CCCN1C(=O)/C(=C/c2ccc(N3CCCC3)c(C)c2)NC1=S 35.5 µM
COc1cccc(C=NNC(=O)c2ccncc2)c1O 56.2 µM
CC1CC(C(F)F)n2nc(C(=O)O)cc2N1 (stereo not given) 20 µM
CSc1nccc(-c2nn(-c3ccc(C)cc3)ccc2=O)n1 56.2 µM
O=[N+]([O-])c1ccccc1OCCOCCOc1cccc2cccnc12 20 µM
C#CCOCCOCCOCCNc1nc(N2CCN(C(=O)[C@H](CC(N)=O)n3cc(C(N)[C@@H](C)CC)nn3)CC2)nc(N2CCN(C(=O)[C@H](CCC(=O)O)n3cc([C@@H](N)CCCCN)nn3)CC2)n1 (stereo not given in full) 79.4 µM
O=c1c(-c2ccco2)[n+]([O-])c2ccccc2n1OCc1ccccc1 50.1 µM
Cc1cccc(-c2nc3ccccc3c(=O)n2NC(=S)N(C)C)c1 89.1 µM
C#CCOCCOCCOCCNc1nc(N2CCN(C(=O)[C@H](CCCCN)n3cc(C(N)CC(C)C)nn3)CC2)nc(N2CCN(C(=O)[C@H](CCC(=O)O)n3cc(C(N)[C@H](C)CC)nn3)CC2)n1 (stereo not given in full) 50.1 µM
COCCn1c(SCC(=O)c2ccc3c(c2)OCCO3)nnc1C(C)C 79.4 µM
CC(c1nc2ccccc2c(=O)[nH]1)N1CCN(C)CC1 (stereo not given) 70.8 µM
S=c1nc[nH]c2c1ncn2-c1ccc(Cl)cc1 50.1 µM
COP(=O)(OC)c1ccc(NCc2cc(O)ccc2O)cc1 3.55 µM

Potency, inconclusive:
CCc1ccc(OCC(=O)N/N=C\c2ccco2)c([N+](=O)[O-])c1 31.6 µM [inhibitor, single point]
COc1ccc(C)cc1N(CC(=O)Nc1cccc(N(C)S(C)(=O)=O)c1)S(C)(=O)=O 28.2 µM [inhibitor, full curve]
Cc1ccc(SC[C@H](Cc2ccccc2)N2CCN(CCc3ccccc3)CCC2=O)cc1 12.6 µM [inhibitor, full curve]
COc1ccccc1C(=O)Oc1ccc2c(c1)O/C(=C\c1ccncc1)C2=O 50.1 µM [inhibitor, partial curve]
CCCCSCCCNC(=S)Nc1ccccc1C 79.4 µM [inhibitor, partial curve]
NC(=S)NN=C1c2ccccc2-c2c(F)c(F)c(F)c(F)c21 3.98 µM [inhibitor, full curve, poor fit]
COc1ccc(-c2csc(N3C(=O)CNC3=S)n2)cc1 44.7 µM [inhibitor, single point]
Cc1ccc(C(=O)C2=C(O)C(=O)N(Cc3cccnc3)C2c2ccc(OC(C)C)cc2)o1 (stereo not given) 50.1 µM [inhibitor, partial curve]
CCOc1ccc(Nc2nc3ccccc3n3nnnc23)cc1 70.8 µM [inhibitor, single point]
O=C(NCC1CCCO1)C(c1cccs1)N(Cc1ccccc1Cl)C(=O)c1ccc(-c2ccccc2)[nH]1 (stereo not given) 39.8 µM [inhibitor, partial curve]
COc1cccc(NC(=O)CSc2nccn2-c2cccc(OC)c2)c1 63.1 µM [inhibitor, partial curve]
CCOc1ccccc1OC(=O)c1cc2ccccc2oc1=O 17.8 µM [inhibitor, single point]
Cc1ccc(C2(c3ccccc3)NC(=O)N(CC(=O)N3CC(=O)Nc4ccccc43)C2=O)cc1C (stereo not given) 50.1 µM [inhibitor, partial curve, poor fit]
COc1ccc(N2CCN(C(CNS(=O)(=O)c3ccc4c(c3)OCCO4)c3ccco3)CC2)cc1 (stereo not given) 22.4 µM [inhibitor, full curve]
COc1ccc(CN2CCC(n3nccc3NC(=O)c3cccc(F)c3)CC2)cc1O 3.55 µM [inhibitor, single point]
CCCCN(CC)C(=O)c1oc2ccc(S(=O)(=O)N3CCCC3)cc2c1C 20 µM [inhibitor, full curve, poor fit]
O=C(NCC(c1ccco1)N1CCCC1)c1ccc(Cl)c(S(=O)(=O)N2CCc3ccccc32)c1 (stereo not given) 20 µM [inhibitor, full curve]
CCO/N=C(/C)c1c(O)cc(-c2ccccc2)n(-c2ccccc2)c1=O 89.1 µM [inhibitor, single point]
COC(=O)c1cc(OC)c(OC)cc1NC(=O)CN1C(=O)c2ccccc2C1=O 89.1 µM [inhibitor, single point]
CCOC(=O)C(=NC1CCS(=O)(=O)C1)NNc1cc(Cl)ccc1Cl (stereo not given) 22.4 µM [inhibitor, full curve]
Cc1cccc(N2CCN(C(=O)c3cc(S(=O)(=O)N(C)C)ccc3N3CCCC3)CC2)c1C 50.1 µM [inhibitor, partial curve]
CC(C)c1cccc(OCCCCN(C)C)c1 10 µM [inhibitor, partial curve, poor fit]
COc1ccc(OC)c(NC(=O)CSc2c3c(nc4ccccc24)CCCC3)c1 25.1 µM [inhibitor, partial curve]
CC(C)(C)c1ccc(C(=O)c2c[nH]c(C(=O)NCCCn3ccnc3)c2)cc1 56.2 µM [inhibitor, partial curve, poor fit]
COc1ccc(/C=C2\CCc3ccccc3C2=O)cc1Cn1cccn1 35.5 µM [inhibitor, partial curve, poor fit]
CC(Oc1ccccc1)C(=O)Nc1nnc(S(=O)(=O)Nc2ccccc2)s1 (stereo not given) 89.1 µM [inhibitor, partial curve]
CCCCn1c(SCc2ccc(Cl)cc2)nc2c1c(=O)[nH]c(=O)n2C 35.5 µM [inhibitor, single point]
CN(Cc1ccccc1)c1nc(N)c([N+](=O)[O-])c(Nc2cccc(F)c2)n1 7.94 µM [inhibitor, full curve]
Cc1ccc(OCC(=O)N2CCN(c3nnc(-c4ccccc4)c4ccccc34)CC2)cc1 56.2 µM [inhibitor, partial curve]
COc1ccccc1C(=O)NC(=S)Nc1ccc(N2CCCC2)cc1 14.1 µM [inhibitor, full curve]
COc1ccc(N2CCN(C(=O)c3oc4ccccc4c3NC(=O)Cc3ccc(OC)c(OC)c3)CC2)cc1 10 µM [inhibitor, full curve]
Nc1ccc(OC(=O)Nc2ccc(O)cc2)cc1 89.1 µM [inhibitor, single point]
COC(=O)c1ccc(NC(=O)c2c(NCc3ccc(C)o3)sc3c2CCCC3)cc1 50.1 µM [inhibitor, partial curve]

Activity change, negative = inhibition, inactive:
CC1(C)CC(=O)N(CC(=O)NCc2ccccc2)c2ccccc2S1(=O)=O -6.34%
CSc1nc(-c2ccc(F)cc2)nc2c1Cc1c(CO)cnc(C)c1O2 -15%
CC(C)CCNC(=S)Nc1ccccn1 -13%
Cc1cc(NC(=O)C(C)SCC(=O)N(Cc2ccccc2)c2ccccc2)no1 (stereo not given) -12.1%
Cc1c(Cl)cccc1NC(=O)c1cnc2sc(N3CCCC3)nn2c1=O -8%
COC(=O)C1CCN(CC(=O)Nc2ccc(OC)c(Cl)c2)CC1 -8.16%
Cc1[nH]c2ccccc2c1SCc1ccccc1 -10.4%
O=C(CSC(=S)N1CCOCC1)c1cc2ccccc2oc1=O -29.9%
NS(=O)(=O)c1ccc(CCNC(=O)C2CCN(C(=O)Nc3ccccc3)CC2)cc1 -7.53%
CCn1cc(C(=O)OCC(=O)Nc2cc(C)cc(C)c2)c(=O)c2ccc(C)nc21 -10.6%
O=C(NCc1ccncc1)c1cccc(S(=O)(=O)Nc2ccc(F)cc2)c1 -11.6%
CCOC(=O)c1c(NC(=O)c2ccccc2)sc2c(O)c(CN(CC)CC)ccc12 -21.6%
Cc1ccc(S(=O)(=O)Nc2nnc(C(C)(C)C)s2)cc1 -5.1%
Cc1ccc(OCC(=O)NCC2(N3CCN(C)CC3)CCCCC2)cc1C -0.662%
CCN(CC(=O)Nc1ccc(Br)cc1F)CC(=O)NC1CCS(=O)(=O)C1 (stereo not given) 0.709%
Cc1ccc(OC(=O)c2cc(-c3ccc4c(c3)OCCO4)on2)c(C)c1 26.8%
N#Cc1ccccc1NC(=S)NC(=O)c1cccnc1 -8.16%
COc1ccc(C(=O)Nc2nc(CC(=O)NCCc3ccccc3)cs2)cc1 -17.8%
S=C(Nc1cc(Cl)ccc1Cl)Nn1cnnc1 -10.3%
COC(=O)[C@@H](NC(=O)NCc1ccco1)C(C)C 0%
C=CCn1c(=O)c(C(=O)NCc2ccc3c(c2)OCO3)c(O)c2cc(OC)c(OC)cc21 -4.2%
COc1ccc(NC(=O)CN(C)C(=O)c2sc3cc(Cl)ccc3c2Cl)cc1 -6.9%
CC(OC(=O)c1nccnc1N)C(=O)Nc1ccc(S(=O)(=O)N2CCCC2)cc1 (stereo not given) -4.83%
